Measured values: paper PMC4336329 (PLoS ONE, 2015)
Among all 310,000 compounds or so, about 2,200 (0.71%) showed an effect of 50% or more. The effect is printed as a negative number. The list shows a part of the results.

Each compound was assayed against human ether-à-go-go-related gene (hERG) potassium channel (human, UniProt Q12809) (assay: primary screen, population patch clamp on CHO cells stably expressing hERG).
Sequence of human ether-à-go-go-related gene (hERG) potassium channel (Q12809 whole entry, looked up): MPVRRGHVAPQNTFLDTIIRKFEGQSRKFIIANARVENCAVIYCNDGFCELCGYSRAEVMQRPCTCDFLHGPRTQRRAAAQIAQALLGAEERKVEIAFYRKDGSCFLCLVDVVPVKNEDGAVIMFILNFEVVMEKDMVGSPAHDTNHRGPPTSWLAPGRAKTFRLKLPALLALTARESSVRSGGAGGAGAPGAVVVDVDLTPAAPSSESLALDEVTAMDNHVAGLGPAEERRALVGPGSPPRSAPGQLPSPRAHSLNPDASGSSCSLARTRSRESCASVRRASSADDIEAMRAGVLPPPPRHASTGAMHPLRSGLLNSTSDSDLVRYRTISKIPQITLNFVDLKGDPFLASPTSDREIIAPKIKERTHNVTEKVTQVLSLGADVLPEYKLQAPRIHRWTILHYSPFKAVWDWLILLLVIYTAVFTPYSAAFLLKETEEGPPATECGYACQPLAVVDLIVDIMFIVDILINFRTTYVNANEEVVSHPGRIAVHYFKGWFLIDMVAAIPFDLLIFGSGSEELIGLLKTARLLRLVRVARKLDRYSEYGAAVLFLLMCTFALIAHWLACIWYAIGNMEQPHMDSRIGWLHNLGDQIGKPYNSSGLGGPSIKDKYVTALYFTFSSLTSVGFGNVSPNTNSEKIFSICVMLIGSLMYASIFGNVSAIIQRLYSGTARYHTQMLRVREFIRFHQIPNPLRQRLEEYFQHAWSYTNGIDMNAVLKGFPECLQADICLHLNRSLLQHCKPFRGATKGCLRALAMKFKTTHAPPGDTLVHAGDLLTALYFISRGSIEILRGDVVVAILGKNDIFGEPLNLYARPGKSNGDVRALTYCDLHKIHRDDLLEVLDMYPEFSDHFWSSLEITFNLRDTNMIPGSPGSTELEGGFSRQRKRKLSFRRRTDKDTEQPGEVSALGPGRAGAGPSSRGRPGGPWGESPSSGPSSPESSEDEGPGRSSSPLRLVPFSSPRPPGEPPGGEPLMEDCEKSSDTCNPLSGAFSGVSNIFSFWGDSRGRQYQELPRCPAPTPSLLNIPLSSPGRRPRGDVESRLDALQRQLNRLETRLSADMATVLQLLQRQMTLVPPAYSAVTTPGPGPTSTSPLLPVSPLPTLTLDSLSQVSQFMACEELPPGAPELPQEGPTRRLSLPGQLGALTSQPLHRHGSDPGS
`CCCCC(=O)Nc1cc(C)c(NC(=O)c2cccs2)cn1` was tested, and the “hERG current change (%, negative = inhibition) at 1uM” value was 3.07%.
In the case of `Cc1cccc(NCC(=O)c2c(N)n(C)c(=O)n(C)c2=O)c1C`, the “hERG current change (%, negative = inhibition) at 1uM” value is reported as 19.7%.
In the case of `CCN(CC)S(=O)(=O)c1cccc(C(=O)NNC(=O)C2=NN(c3ccccc3)C(=O)CC2)c1`, the “hERG current change (%, negative = inhibition) at 1uM” value is reported as 11.7%.
With `COc1cc(/C=N/n2c(COc3ccccc3)n[nH]c2=S)cc(OC)c1OC(C)=O` the “hERG current change (%, negative = inhibition) at 1uM” value was 14.8%.
With `CC1(C)CC(=O)C2=C(C1)N(c1ccc(F)cc1)C(=O)C2(NC(=O)c1ccccc1F)C(F)(F)F` (stereo not drawn) the “hERG current change (%, negative = inhibition) at 1uM” value was -0.264%.
`COc1ccc(C(=O)C2CCCN(C(=O)C3=CCCC3)C2)cc1OC` (stereo not drawn) was tested, and the “hERG current change (%, negative = inhibition) at 1uM” value was 10.8%.
For `O=C1CC(N2CCN(c3ccc(O)cc3)CC2)C(=O)N1Cc1cccs1` (stereo not drawn), the “hERG current change (%, negative = inhibition) at 1uM” value was 1.7%.
With `O=C(CCC(=O)Nc1ccccc1Cl)NNC(=O)COc1ccc([N+](=O)[O-])cc1` the “hERG current change (%, negative = inhibition) at 1uM” value was 2.74%.
`CC(C)Cc1cc(C(=O)N2CCCC(CO)(Cc3ccc(F)cc3F)C2)n[nH]1` (stereo not drawn) was tested, and the “hERG current change (%, negative = inhibition) at 1uM” value was 16.2%.
With `Cc1ccc(C2N(c3cccc(Cl)c3)C(=O)C3CCCN32)o1` (stereo not drawn) the “hERG current change (%, negative = inhibition) at 1uM” value was -1.45%.
`CCOC(=O)c1c(C)[nH]c(C(=O)N/N=C/c2ccc(Br)cc2)c1C` was tested, and the “hERG current change (%, negative = inhibition) at 1uM” value was 12.7%.
In the case of `O=C(Cc1ccccc1Cl)Nc1cccnc1`, the “hERG current change (%, negative = inhibition) at 1uM” value is reported as 10.5%.
In the case of `Cl.OC(COCc1cccs1)CN1CCCCCC1` (stereo not drawn), the “hERG current change (%, negative = inhibition) at 1uM” value is reported as -5.74%.
For `CCN(CC)C(=S)NC(=O)C12CC3CC(CC(C3)C1)C2`, the “hERG current change (%, negative = inhibition) at 1uM” value was 4.98%.
With `CCOC(=O)C1CCN(C(=O)CCS(=O)(=O)Cc2ccccc2)CC1` the “hERG current change (%, negative = inhibition) at 1uM” value was 13.2%.
For `Cc1ccc(NC(=O)COc2ccc(/C=N\NC(=O)c3cccnc3)cc2)cc1C`, the “hERG current change (%, negative = inhibition) at 1uM” value was 10.1%.
`CCCn1c(SCC(=O)NCc2ccco2)nnc1C(C)C` was tested, and the “hERG current change (%, negative = inhibition) at 1uM” value was 15.8%.
In the case of `Cc1ccc(CNS(=O)(=O)c2cc3c4c(c2)CCN4C(=O)CC3)cc1`, the “hERG current change (%, negative = inhibition) at 1uM” value is reported as -6.32%.
For `CC(=O)N1c2ccc(S(=O)(=O)CCC(=O)O)cc2CC1C` (stereo not drawn), the “hERG current change (%, negative = inhibition) at 1uM” value was 7.94%.
For `Cc1cc(C)c(-c2c(O)c3ccccc3n(C)c2=O)c(C)c1`, the “hERG current change (%, negative = inhibition) at 1uM” value was 10.9%.
With `CC(C)N1CC=C2C(C#N)=C(N)C(C#N)(C#N)[C@H](c3ccoc3)[C@H]2C1` the “hERG current change (%, negative = inhibition) at 1uM” value was 2.04%.
`CCC1=Nc2ccccc2-c2nnc(SC)nc2O1` was tested, and the “hERG current change (%, negative = inhibition) at 1uM” value was -12%.
For `CN(C(=O)CN1C(=O)c2cc(Cl)c(Cl)cc2C1=O)C1CCS(=O)(=O)C1` (stereo not drawn), the “hERG current change (%, negative = inhibition) at 1uM” value was -7.83%.
`COC(=O)c1ccc(CSc2ncnc3c2sc2nc(N4CCOCC4)c4c(c23)CCCC4)o1` was tested, and the “hERG current change (%, negative = inhibition) at 1uM” value was 8.01%.
For `C=CCNC(=O)CN(Cc1ccccc1)S(=O)(=O)c1ccc(C)cc1`, the “hERG current change (%, negative = inhibition) at 1uM” value was 6.86%.
For `Cc1cccc(CN2CCC(n3nccc3NC(=O)c3ccccc3C)CC2)n1`, the “hERG current change (%, negative = inhibition) at 1uM” value was 4.02%.
In the case of `CC(=O)NC1=NN(C(C)=O)C(C)(c2cccs2)S1` (stereo not drawn), the “hERG current change (%, negative = inhibition) at 1uM” value is reported as 7.58%.
`O=C(N/N=C\c1ccncc1)c1ccc(Cl)s1` was tested, and the “hERG current change (%, negative = inhibition) at 1uM” value was 10.5%.
In the case of `COc1cccc(CNC(=O)COC(=O)c2ccc(C(=O)c3ccccc3)cc2)c1`, the “hERG current change (%, negative = inhibition) at 1uM” value is reported as 4.05%.
With `Cc1cccc(C)c1NC(=O)CN(C)C(=O)CSCc1c(C)noc1C` the “hERG current change (%, negative = inhibition) at 1uM” value was 9.03%.
For `COc1ccc(S(=O)(=O)NCC2CCCN(C(=O)c3sccc3C)C2)cc1` (stereo not drawn), the “hERG current change (%, negative = inhibition) at 1uM” value was 8.55%.
With `C[C@H]1CCC[C@]2(O[C@H](CCO)C[C@H](O)[C@H]2O)O1` the “hERG current change (%, negative = inhibition) at 1uM” value was 15.4%.
In the case of `CCc1ccc(N(C(=O)CNC(=O)c2ccco2)C(C(=O)NCC2CCCO2)c2ccccc2)cc1` (stereo not drawn), the “hERG current change (%, negative = inhibition) at 1uM” value is reported as 3.34%.
With `COc1ccc(OCc2cc(C(=O)NC(C)Cc3ccccn3)no2)c(Cl)c1` (stereo not drawn) the “hERG current change (%, negative = inhibition) at 1uM” value was 9.87%.
For `O=C(O)CCN(CCC(=O)O)c1nnc(SCc2ccccc2)s1`, the “hERG current change (%, negative = inhibition) at 1uM” value was 11.7%.
With `CCN(CC(=O)Nc1ccc(NC(C)=O)cc1)C(=O)/C=C/c1ccc(S(=O)(=O)N2CCCCCC2)cc1` the “hERG current change (%, negative = inhibition) at 1uM” value was 9.94%.
In the case of `COc1ccc(NC(=O)COC(=O)C2C3CC4OC(=O)C2C4C3)cc1` (stereo not drawn), the “hERG current change (%, negative = inhibition) at 1uM” value is reported as 17.3%.
With `CC(=O)c1cc2c(cc1NC(=O)CCn1cnnn1)OCO2` the “hERG current change (%, negative = inhibition) at 1uM” value was 8.44%.
`CCC(=O)N1c2ccc(S(=O)(=O)N3CCN(c4ccccc4Cl)CC3)cc2CC1C` (stereo not drawn) was tested, and the “hERG current change (%, negative = inhibition) at 1uM” value was 15.3%.
For `CCOC(=O)N1CCN(C(=O)c2cc3n(n2)C(C(F)(F)F)CC(c2ccc4c(c2)OCO4)N3)CC1` (stereo not drawn), the “hERG current change (%, negative = inhibition) at 1uM” value was 12.4%.
With `Cc1ccc(C2NC(=S)NC3=C2C(=O)CCC3)cc1` (stereo not drawn) the “hERG current change (%, negative = inhibition) at 1uM” value was 11.9%.
`Cc1cc(C(=O)N/N=C/c2ccccn2)n[nH]1` was tested, and the “hERG current change (%, negative = inhibition) at 1uM” value was 15.6%.
With `COc1ccc(-c2nc(C#N)c(N3CCN(c4cccc(Cl)c4)CC3)o2)cc1OC` the “hERG current change (%, negative = inhibition) at 1uM” value was 14.2%.
`CC(C)CN1CCC(=O)N(CCN=[N+]=[N-])CC1` was tested, and the “hERG current change (%, negative = inhibition) at 1uM” value was 6.67%.
In the case of `Cc1nc(Cl)sc1C(=O)Nc1ccc(Cl)cc1`, the “hERG current change (%, negative = inhibition) at 1uM” value is reported as 2.35%.
For `O=C(O)C1=C[C@@H](c2ccc(Br)cc2)C[C@@H](OCCCCO)O1`, the “hERG current change (%, negative = inhibition) at 1uM” value was 11%.
With `OC1(Cc2ccccc2)CCNCC1` the “hERG current change (%, negative = inhibition) at 1uM” value was 15.6%.
In the case of `COc1ccc(NC(=O)CS(=O)CC(=O)Nc2ccc(-n3cnnn3)c(C)c2)cc1` (stereo not drawn), the “hERG current change (%, negative = inhibition) at 1uM” value is reported as 11%.
For `O=C(Nc1ccccc1)Nc1nnc(/C=C/c2ccccc2Cl)s1`, the “hERG current change (%, negative = inhibition) at 1uM” value was 16.8%.
`O=c1ccc2ccccc2n1Cc1cccc(F)c1` was tested, and the “hERG current change (%, negative = inhibition) at 1uM” value was 12.6%.
`CCCCC1=CC2=CC(=O)C(C)(OC(=O)CC)C(=O)C2=CN1C1CCCCC1` (stereo not drawn) was tested, and the “hERG current change (%, negative = inhibition) at 1uM” value was 4.1%.
For `C/C(=N\NS(=O)(=O)c1ccc([N+](=O)[O-])cc1)c1cccs1`, the “hERG current change (%, negative = inhibition) at 1uM” value was 12%.
`CCOC(=O)C1CCCN(C(=O)c2cccc(S(=O)(=O)N3CCCC3)c2)C1` (stereo not drawn) was tested, and the “hERG current change (%, negative = inhibition) at 1uM” value was 15.4%.
`COc1ccc(CCNC(=O)COC(=O)c2cc(S(=O)(=O)N3CCCC3)ccc2O)cc1` was tested, and the “hERG current change (%, negative = inhibition) at 1uM” value was 1.5%.
`CCCCCc1ccc(OCCCC[n+]2ccccc2)c(CCCCC)c1.[Cl-]` was tested, and the “hERG current change (%, negative = inhibition) at 1uM” value was -8.63%.
In the case of `O=C(Oc1cc(=O)oc2ccccc12)c1ccccc1`, the “hERG current change (%, negative = inhibition) at 1uM” value is reported as 10.2%.
In the case of `Cc1n(CC(O)COCc2ccccc2)c2ccccc2[n+]1C.[I-]` (stereo not drawn), the “hERG current change (%, negative = inhibition) at 1uM” value is reported as 19.4%.
